# The other results are listed elsewhere or left out.
# B1: DC-ASGPR S+GEE (Homo sapiens) (protein)
# chain: MTRTYENFQYLENKVKVQGFKNGPLPLQSLLQRLRSGPCHLLLSLGLGLLLLVIICVVGFQNSKFQRDLVTLRTDFSNFTSNTVAEIQALTSQGSSLEETIASLKAEVEGFKQERQAVHSEMLLRVQQLVQDLKKLTCQVATINNNGEEASTEGTCCPVNWVEHQDSCYWFSHSGMSWAEAEKYCQLKNAHLVVINSREEQNFVQKYLGSAYTWMGLSDPEGAWKWVDGTDYATGFQNWKPGQPDDWQGHGLGGGEDCAHFHPDGRWNDDVCQRPYHWVCEAGLGQTSQESH
# Experiments:
# Experiment in all cases: glycan array binding signal (z-score within array); higher = stronger binding
# Conditions in all cases: glycan notation: IUPAC condensed, linker removed
# [1] = target: Neu5Ac(a2-6)Gal(b1-4)GlcNAc(b1-3)[Neu5Ac(a2-6)Gal(b1-4)GlcNAc(b1-6)]GalNAc
# How it was run: (§1)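 The binding signal is a Z-score computed within each array. Data were drawn from 3228 arrays in the Consortium for Functional Glycomics database, restricted to those with a known protein sequence. Scores were averaged over arrays of the same protein sequence at different concentrations or buffers, and over linkers, and negative values can be taken as non-binding.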
# [2] = target: Neu5Ac(a2-6)Gal(b1-4)GlcNAc(b1-6)GalNAc
# How it was run: as §1
# [3] = target: Neu5Ac(a2-6)Gal(b1-4)GlcNAc(b1-6)[Gal(b1-3)GlcNAc(b1-3)]Gal(b1-4)Glc
# How it was run: as §1
# [4] = target: Neu5Ac(a2-6)Gal(b1-4)GlcNAc(b1-6)[Gal(b1-3)]GalNAc
# How it was run: as §1
# [5] = target: Neu5Ac(a2-6)Gal(b1-4)GlcNAc6S
# How it was run: as §1
# [6] = target: Neu5Ac(a2-6)GalNAc
# How it was run: as §1
# [7] = target: Neu5Ac(a2-6)GalNAc(b1-4)GlcNAc
# How it was run: as §1
# [8] = target: Neu5Ac(a2-6)GalNAc(b1-4)GlcNAc6S
# How it was run: as §1
# [9] = target: Neu5Ac(a2-6)GlcNAc(b1-4)GlcNAc
# How it was run: as §1
# [10] = target: Neu5Ac(a2-6)GlcNAc(b1-4)GlcNAc(b1-4)GlcNAc
# How it was run: as §1
# [11] = target: Neu5Ac(a2-8)Neu5Ac
# How it was run: as §1
# [12] = target: Neu5Ac(a2-8)Neu5Ac(a2-3)Gal(b1-3)GalNAc(b1-4)[Neu5Ac(a2-3)]Gal(b1-4)Glc
# How it was run: as §1
# [13] = target: Neu5Ac(a2-8)Neu5Ac(a2-3)Gal(b1-3)GalNAc(b1-4)[Neu5Ac(a2-8)Neu5Ac(a2-3)]Gal(b1-4)Glc
# How it was run: as §1
# [14] = target: Neu5Ac(a2-8)Neu5Ac(a2-3)Gal(b1-4)Glc
# How it was run: as §1
# [15] = target: Neu5Ac(a2-8)Neu5Ac(a2-3)Gal(b1-4)GlcNAc
# How it was run: as §1
# [16] = target: Neu5Ac(a2-8)Neu5Ac(a2-3)[Gal(b1-3)GalNAc(b1-4)]Gal(b1-4)Glc
# How it was run: as §1
# [17] = target: Neu5Ac(a2-8)Neu5Ac(a2-3)[GalNAc(b1-4)]Gal(b1-4)Glc
# How it was run: as §1
# [18] = target: Neu5Ac(a2-8)Neu5Ac(a2-8)Neu5Ac
# How it was run: as §1
# [19] = target: Neu5Ac(a2-8)Neu5Ac(a2-8)Neu5Ac(a2-3)Gal(b1-4)Glc
# How it was run: as §1
# [20] = target: Neu5Ac(a2-8)Neu5Ac(a2-8)Neu5Ac(a2-3)[Gal(b1-3)GalNAc(b1-4)]Gal(b1-4)Glc
# How it was run: as §1
# [21] = target: Neu5Ac(a2-8)Neu5Ac(a2-8)Neu5Ac(a2-3)[GalNAc(b1-4)]Gal(b1-4)Glc
# How it was run: as §1
# [22] = target: Neu5Ac(a2-8)Neu5Ac(a2-8)Neu5Ac(a2-8)Neu5Ac(a2-3)[GalNAc(b1-4)]Gal(b1-4)Glc
# How it was run: as §1
# [23] = target: Neu5Ac(a2-8)Neu5Gc(a2-3)Gal(b1-4)GlcNAc
# How it was run: as §1
# [24] = target: Neu5Ac(b2-6)Gal(b1-4)GlcNAc
# How it was run: as §1
# [25] = target: Neu5Ac(b2-6)GalNAc
# How it was run: as §1
# [26] = target: Neu5Ac9Ac(a2-3)Gal(b1-3)GlcNAc
# How it was run: as §1
# [27] = target: Neu5Ac9Ac(a2-3)Gal(b1-4)GlcNAc
# How it was run: as §1
# [28] = target: Neu5Ac9Ac(a2-6)Gal(b1-4)GlcNAc
# How it was run: as §1
# [29] = target: Neu5Gc(a2-3)Gal(b1-3)GlcNAc
# How it was run: as §1
# [30] = target: Neu5Gc(a2-3)Gal(b1-3)[Fuc(a1-4)]GlcNAc
# How it was run: as §1
# [31] = target: Neu5Gc(a2-3)Gal(b1-4)Glc
# How it was run: as §1
# [32] = target: Neu5Gc(a2-3)Gal(b1-4)GlcNAc
# How it was run: as §1
# [33] = target: Neu5Gc(a2-3)Gal(b1-4)GlcNAc(b1-3)Gal(b1-4)GlcNAc(b1-2)Man(a1-3)[Neu5Gc(a2-3)Gal(b1-4)GlcNAc(b1-3)Gal(b1-4)GlcNAc(b1-2)Man(a1-6)]Man(b1-4)GlcNAc(b1-4)GlcNAc
# How it was run: as §1
# [34] = target: Neu5Gc(a2-3)Gal(b1-4)[Fuc(a1-3)]GlcNAc
# How it was run: as §1
# [35] = target: Neu5Gc(a2-6)Gal(b1-4)GlcNAc
# How it was run: as §1
# [36] = target: Neu5Gc(a2-6)GalNAc
# How it was run: as §1
# [37] = target: Neu5Gc(a2-8)Neu5Ac(a2-3)Gal(b1-4)GlcNAc
# How it was run: as §1
# [38] = target: Neu5Gc(a2-8)Neu5Gc(a2-3)Gal(b1-4)GlcNAc
# How it was run: as §1
binder,measurement,setting,value
B1,glycan array binding signal (z-score),[1],0.135
same,glycan array binding signal (z-score),[2],-0.245
same,glycan array binding signal (z-score),[3],-0.047
same,glycan array binding signal (z-score),[4],-0.36
same,glycan array binding signal (z-score),[5],-0.325
same,glycan array binding signal (z-score),[6],1.48
same,glycan array binding signal (z-score),[7],0.853
same,glycan array binding signal (z-score),[8],0.608
same,glycan array binding signal (z-score),[9],-0.303
same,glycan array binding signal (z-score),[10],-0.324
same,glycan array binding signal (z-score),[11],-0.377
same,glycan array binding signal (z-score),[12],-0.32
same,glycan array binding signal (z-score),[13],-0.342
same,glycan array binding signal (z-score),[14],-0.334
same,glycan array binding signal (z-score),[15],-0.278
same,glycan array binding signal (z-score),[16],0.848
same,glycan array binding signal (z-score),[17],2
same,glycan array binding signal (z-score),[18],-0.301
same,glycan array binding signal (z-score),[19],-0.432
same,glycan array binding signal (z-score),[20],-0.429
same,glycan array binding signal (z-score),[21],1.63
same,glycan array binding signal (z-score),[22],1.61
same,glycan array binding signal (z-score),[23],-0.292
same,glycan array binding signal (z-score),[24],-0.3
same,glycan array binding signal (z-score),[25],0.361
same,glycan array binding signal (z-score),[26],-0.316
same,glycan array binding signal (z-score),[27],-0.346
same,glycan array binding signal (z-score),[28],-0.332
same,glycan array binding signal (z-score),[29],-0.217
same,glycan array binding signal (z-score),[30],-0.33
same,glycan array binding signal (z-score),[31],-0.351
same,glycan array binding signal (z-score),[32],-0.25
same,glycan array binding signal (z-score),[33],-0.254
same,glycan array binding signal (z-score),[34],0.499
same,glycan array binding signal (z-score),[35],-0.355
same,glycan array binding signal (z-score),[36],2.28
same,glycan array binding signal (z-score),[37],-0.281
same,glycan array binding signal (z-score),[38],-0.306

# — the supplement of paper PMC8728848
